Three molecules from publication PMC5210502 can be followed below.

The chains behind the UniProt entries cited, without tags or fusion partners.
UniProt Q8IUC6: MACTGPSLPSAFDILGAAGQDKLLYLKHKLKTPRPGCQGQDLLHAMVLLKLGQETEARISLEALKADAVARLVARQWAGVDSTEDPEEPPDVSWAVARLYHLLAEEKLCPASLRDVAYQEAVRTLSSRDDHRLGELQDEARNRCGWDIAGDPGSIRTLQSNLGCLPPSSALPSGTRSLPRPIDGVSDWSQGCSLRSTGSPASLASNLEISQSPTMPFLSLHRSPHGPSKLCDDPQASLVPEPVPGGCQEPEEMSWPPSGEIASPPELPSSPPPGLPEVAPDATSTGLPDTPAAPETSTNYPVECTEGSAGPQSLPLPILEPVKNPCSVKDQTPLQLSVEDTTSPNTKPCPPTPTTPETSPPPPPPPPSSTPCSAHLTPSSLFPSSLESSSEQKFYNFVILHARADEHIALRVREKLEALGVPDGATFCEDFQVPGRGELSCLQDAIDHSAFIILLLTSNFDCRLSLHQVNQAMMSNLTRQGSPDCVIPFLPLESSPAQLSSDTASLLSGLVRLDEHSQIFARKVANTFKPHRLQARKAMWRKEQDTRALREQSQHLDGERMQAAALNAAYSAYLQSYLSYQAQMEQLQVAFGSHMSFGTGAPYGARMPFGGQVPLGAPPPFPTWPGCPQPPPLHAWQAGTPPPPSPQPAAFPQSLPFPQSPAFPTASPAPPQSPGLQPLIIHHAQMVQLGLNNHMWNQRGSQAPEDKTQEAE
UniProt O00463: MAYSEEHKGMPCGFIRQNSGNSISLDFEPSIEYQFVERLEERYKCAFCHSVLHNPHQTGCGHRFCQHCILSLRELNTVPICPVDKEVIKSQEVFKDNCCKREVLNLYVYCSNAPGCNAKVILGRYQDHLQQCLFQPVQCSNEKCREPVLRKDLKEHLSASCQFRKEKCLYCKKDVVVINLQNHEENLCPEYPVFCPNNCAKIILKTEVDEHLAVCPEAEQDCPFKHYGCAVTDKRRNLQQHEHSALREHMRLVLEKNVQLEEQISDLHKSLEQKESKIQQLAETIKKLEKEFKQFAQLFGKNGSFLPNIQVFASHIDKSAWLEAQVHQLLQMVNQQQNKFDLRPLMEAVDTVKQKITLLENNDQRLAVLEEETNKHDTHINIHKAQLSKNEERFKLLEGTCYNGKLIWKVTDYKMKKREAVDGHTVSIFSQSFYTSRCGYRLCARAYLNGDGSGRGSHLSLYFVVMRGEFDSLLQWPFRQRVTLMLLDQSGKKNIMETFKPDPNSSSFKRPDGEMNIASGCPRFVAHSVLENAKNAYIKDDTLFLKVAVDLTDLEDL

Assay [1] concerns the target endogenous TRIF of THP-1 cells (human (endogenous in THP-1)) (UniProt Q8IUC6). Nature of the assay: co-IP; endogenous proteins, THP-1 cell extracts, cells treated with poly(I:C) overnight.
The target of assay [2] is T1, FLAG-tagged Tank-binding kinase 1 (TBK1) (UniProt Q9UHD2).
T1 sequence: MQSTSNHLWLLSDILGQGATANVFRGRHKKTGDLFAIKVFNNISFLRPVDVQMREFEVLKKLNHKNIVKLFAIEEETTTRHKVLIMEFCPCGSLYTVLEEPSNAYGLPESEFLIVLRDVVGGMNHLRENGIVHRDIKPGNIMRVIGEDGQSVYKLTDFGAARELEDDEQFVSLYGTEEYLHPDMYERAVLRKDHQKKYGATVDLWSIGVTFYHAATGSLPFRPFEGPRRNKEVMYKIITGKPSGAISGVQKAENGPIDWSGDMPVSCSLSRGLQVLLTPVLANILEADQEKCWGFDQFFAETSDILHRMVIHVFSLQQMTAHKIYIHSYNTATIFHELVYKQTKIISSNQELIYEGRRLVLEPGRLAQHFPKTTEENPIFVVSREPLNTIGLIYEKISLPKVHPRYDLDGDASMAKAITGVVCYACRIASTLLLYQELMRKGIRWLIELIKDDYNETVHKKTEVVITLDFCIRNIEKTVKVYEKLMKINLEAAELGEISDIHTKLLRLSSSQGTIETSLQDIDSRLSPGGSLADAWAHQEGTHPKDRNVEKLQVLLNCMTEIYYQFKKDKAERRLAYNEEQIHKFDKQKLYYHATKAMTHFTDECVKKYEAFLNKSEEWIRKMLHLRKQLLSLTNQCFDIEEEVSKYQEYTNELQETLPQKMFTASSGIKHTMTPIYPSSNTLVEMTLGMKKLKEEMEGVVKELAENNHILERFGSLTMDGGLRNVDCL
As to the kind of experiment: co-IP; 293T cells co-transfected with a FLAG-tagged protein and HA-FOSL1; IP with anti-FLAG beads, immunoblot with anti-HA.

Assay [3] addresses FLAG-tagged TRAF5 (UniProt O00463). The description is as above.
For assay [4], the target named is T2, FLAG-tagged retinoic acid-inducible gene I (RIG-I) (UniProt O95786).
T2 sequence: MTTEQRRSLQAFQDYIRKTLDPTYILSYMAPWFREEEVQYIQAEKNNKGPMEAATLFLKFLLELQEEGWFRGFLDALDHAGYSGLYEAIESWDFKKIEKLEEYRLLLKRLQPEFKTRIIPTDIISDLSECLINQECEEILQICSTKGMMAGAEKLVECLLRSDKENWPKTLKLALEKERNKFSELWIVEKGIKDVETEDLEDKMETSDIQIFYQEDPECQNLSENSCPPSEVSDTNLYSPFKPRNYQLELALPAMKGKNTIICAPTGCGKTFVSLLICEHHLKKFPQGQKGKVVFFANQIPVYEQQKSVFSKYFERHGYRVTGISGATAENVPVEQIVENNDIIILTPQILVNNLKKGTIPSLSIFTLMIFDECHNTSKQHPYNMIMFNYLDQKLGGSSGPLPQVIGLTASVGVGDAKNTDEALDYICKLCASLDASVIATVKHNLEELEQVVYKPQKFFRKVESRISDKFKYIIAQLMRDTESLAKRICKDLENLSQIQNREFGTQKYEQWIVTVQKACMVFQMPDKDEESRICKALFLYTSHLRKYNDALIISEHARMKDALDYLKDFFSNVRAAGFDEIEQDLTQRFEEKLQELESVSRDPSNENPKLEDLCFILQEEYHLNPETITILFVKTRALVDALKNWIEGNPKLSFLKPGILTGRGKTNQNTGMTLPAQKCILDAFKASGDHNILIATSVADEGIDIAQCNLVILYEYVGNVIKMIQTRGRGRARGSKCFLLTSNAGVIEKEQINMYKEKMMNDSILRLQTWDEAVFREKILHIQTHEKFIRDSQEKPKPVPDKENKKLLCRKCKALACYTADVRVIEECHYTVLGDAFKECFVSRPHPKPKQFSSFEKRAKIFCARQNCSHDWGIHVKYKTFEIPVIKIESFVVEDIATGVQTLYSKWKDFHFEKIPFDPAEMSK
The assay is described as above.

The target in assay [5] is T3, FLAG-tagged TRAF2 (UniProt Q12933).
T3 sequence: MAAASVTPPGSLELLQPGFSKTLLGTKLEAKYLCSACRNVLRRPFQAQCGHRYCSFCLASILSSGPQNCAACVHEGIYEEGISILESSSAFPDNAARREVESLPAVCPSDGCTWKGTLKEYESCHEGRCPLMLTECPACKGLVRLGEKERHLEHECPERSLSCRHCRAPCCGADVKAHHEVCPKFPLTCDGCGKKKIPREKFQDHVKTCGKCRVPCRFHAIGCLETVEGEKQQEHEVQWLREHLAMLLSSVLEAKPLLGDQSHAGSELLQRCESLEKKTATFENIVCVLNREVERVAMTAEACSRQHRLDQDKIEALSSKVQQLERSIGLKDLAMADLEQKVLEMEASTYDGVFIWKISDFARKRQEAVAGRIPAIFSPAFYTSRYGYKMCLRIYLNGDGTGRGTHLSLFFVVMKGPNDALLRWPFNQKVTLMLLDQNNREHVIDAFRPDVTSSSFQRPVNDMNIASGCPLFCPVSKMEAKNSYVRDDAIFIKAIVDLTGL
The description is as above.

For assay [6], the target named is T4, endogenous TRAF3 of macrophages (mouse (endogenous in macrophages)) (UniProt Q60803).
T4 sequence: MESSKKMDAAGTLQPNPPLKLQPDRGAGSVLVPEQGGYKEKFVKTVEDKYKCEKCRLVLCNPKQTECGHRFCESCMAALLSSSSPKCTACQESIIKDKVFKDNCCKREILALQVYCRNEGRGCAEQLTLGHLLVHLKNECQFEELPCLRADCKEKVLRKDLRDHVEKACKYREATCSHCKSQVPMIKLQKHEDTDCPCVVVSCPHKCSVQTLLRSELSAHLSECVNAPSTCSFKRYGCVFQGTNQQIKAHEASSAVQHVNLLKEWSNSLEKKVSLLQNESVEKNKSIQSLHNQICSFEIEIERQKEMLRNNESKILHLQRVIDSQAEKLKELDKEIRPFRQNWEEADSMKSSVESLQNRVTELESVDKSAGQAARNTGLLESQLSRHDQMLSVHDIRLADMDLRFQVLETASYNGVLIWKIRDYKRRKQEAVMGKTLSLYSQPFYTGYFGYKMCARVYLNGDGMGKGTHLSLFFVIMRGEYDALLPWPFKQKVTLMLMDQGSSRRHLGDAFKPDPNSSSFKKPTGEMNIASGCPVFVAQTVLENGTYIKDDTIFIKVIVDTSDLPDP
As to the kind of experiment: co-IP.

These are yes or no findings as the source states them, for the method shown. In cells and extracts the contact can be indirect. Some binding calls cover weakened binding; strength is not graded here. For part of these data: Where a sequence is shown, tags or fusion partners need not be part of it.

B1: endogenous FOSL1 of THP-1 cells (protein, UniProt P15407 1-271)
chain: MFRDFGEPGPSSGNGGGYGGPAQPPAAAQAAQQKFHLVPSINTMSGSQELQWMVQPHFLGPSSYPRPLTYPQYSPPQPRPGVIRALGPPPGVRRRPCEQISPEEEERRRVRRERNKLAAAKCRNRRKELTDFLQAETDKLEDEKSGLQREIEELQKQKERLELVLEAHRPICKIPEGAKEGDTGSTSGTSSPPAPCRPVPCISLSPGPVLEPEALHTPTLMTTPSLTPFTPSLVFTYPSTPEPCASAHRKSSSSSGDPSSDPLGSPTLLAL
For the molecule B1, the binding entry in assay [1] is given as “binds”.

B2: HA-tagged FOS-like antigen 1 (FOSL1) (protein, UniProt P15407 1-271)
chain: B1 chain
In the case of B2, the binding result in assay [2], in assay [3], in assay [4] and in assay [5] was “no binding” in each case.

B3: endogenous FOSL1 of macrophages (protein, UniProt P48755 1-273)
chain: MYRDYGEPGPSSGAGSPYGRPAQPPQAQAQTAQQQKFHLVPSIDSSSQELHWMVQPHFLGPTGYPRPLAYPQYSPPQPRPGVIRALGPPPGVRRRPCEQISPEEEERRRVRRERNKLAAAKCRNRRKELTDFLQAETDKLEDEKSGLQREIEELQKQKERLELVLEAHRPICKIPEGDKKDPGGSGSTSGASSPPAPGRPVPCISLSPGPVLEPEALHTPTLMTTPSLTPFTPSLVFTYPSTPEPCSSAHRKSSSSSGDPSSDPLGSPTLLAL
Turning to B3, the binding result in assay [6] was “binds”.
